Experimental data as given in PMC10668032.
Some of the results follow. At the low end of the ranking the order means little.

target: SIX1-Q177R homeodomain (UniProt Q15475); test: universal protein binding microarray; conditions: Universal all-10-mer PBM (8x60K, AMADID 030236), 300 nM GST-tagged protein, Alexa Fluor 488 anti-GST; buffer, salt, pH and temperature not stated; high values mean tight binding; most listed sequences are background and not binding sites; double strand, one strand shown

| Sequence | binding signal |
| --- | --- |
| ACTGTGCG | -0.0964 E-score |
| ATTTTAGG | -0.0923 E-score |
| ACCATATC | -0.0618 E-score |
| CAGTCCCC | -0.269 E-score |
| CTGACGTC | -0.00497 E-score |
| CAACAAGC | -0.0815 E-score |
| ATCTCTTG | -0.00257 E-score |
| GAGAACAA | -0.27 E-score |
| CGTGGAAA | -0.127 E-score |
| AGCCGACA | 0.221 E-score |
| GTTAAGGA | 0.163 E-score |
| GCAGTCCC | -0.152 E-score |
| AATGCTAT | -0.101 E-score |
| AGGCTGGG | 0.00773 E-score |
| AAGAGCAT | -0.0832 E-score |
| GGGATGTA | 0.159 E-score |
| ACTCTGAA | -0.0269 E-score |
| AACCGCGT | 0.0779 E-score |
| CCCAATCA | -0.0903 E-score |
| CAGTCCGG | -0.00157 E-score |
| ACTGTCAT | -0.00922 E-score |
| GGCTATAA | -0.0255 E-score |
| AGCATGAA | -0.211 E-score |
| AACCACGC | -0.0526 E-score |

| Sequence | binding signal |
| --- | --- |
| CAACGAGG | 0.149 E-score |
| CGAAATCG | -0.224 E-score |
| AGATACCC | 0.278 E-score |
| CACCGGTC | 0.21 E-score |
| AATCAGTC | -0.185 E-score |
| GGCCACAA | 0.023 E-score |
| GTCGTTGA | 0.0916 E-score |
| ATCGTAAG | -0.132 E-score |
| AGTGATTG | -0.207 E-score |
| CTAAAGAC | 0.0356 E-score |
| AGAGCAGA | -0.256 E-score |
| AACACGAG | 0.361 E-score |
| TCCGTACA | 0.136 E-score |
| TCAACGAA | -0.124 E-score |
| GTTGCTGA | -0.144 E-score |
| AACTGTAT | -0.225 E-score |
| CGGTTCCC | -0.211 E-score |
| CACGTCAG | 0.0314 E-score |
| ACACTGCA | 0.385 E-score |
| CGACATAG | -0.253 E-score |
| AGCTGACT | -0.177 E-score |
| CCCATTCA | -0.0702 E-score |
| CCAAGAGG | -0.00346 E-score |
| CTCAACAC | 0.393 E-score |

| Sequence | binding signal |
| --- | --- |
| AAACCAAC | -0.134 E-score |
| GAGGTCAA | -0.11 E-score |
| GGGATATA | 0.0559 E-score |
| AGTGGATC | 0.216 E-score |
| ACAGTCTC | 0.00219 E-score |
| ACCCGGTA | 0.236 E-score |
| TTTACAAA | -0.0198 E-score |
| CACGATTC | 0.169 E-score |
| GCTAGCGA | -0.287 E-score |
| GTAGAGAC | -0.108 E-score |
| GTATAGTA | -0.0218 E-score |
| AGGTTCAT | -0.16 E-score |
| CTGCGGAA | -0.00894 E-score |
| ATTTATTG | -0.148 E-score |
| AGTTCTTC | -0.11 E-score |
| TCGCAACA | -0.0369 E-score |
| GATGTTGC | -0.193 E-score |
| AACGTCCG | -0.00294 E-score |
| GATTCCCA | -0.16 E-score |
| CAAAACAG | -0.0244 E-score |
| TAACGTGA | -0.134 E-score |
| TGCAGGCA | -0.0365 E-score |
| AGACGTTG | -0.167 E-score |
| GGGTCCCA | 0.152 E-score |

| Sequence | binding signal |
| --- | --- |
| AAGCAAAG | -0.0891 E-score |
| ATTAAGAG | 0.0363 E-score |
| CAAAACAA | -0.232 E-score |
| GTTATTCA | -0.175 E-score |
| ACATGCGC | -0.185 E-score |
| ATCTCGTA | -0.0887 E-score |
| CACAGGGA | 0.108 E-score |
| AGGCCCGC | -0.362 E-score |
| AGACAATG | -0.0882 E-score |
| AGGTAGTG | 0.249 E-score |
| GATAGCTA | -0.167 E-score |
| AGGCGCTG | -0.149 E-score |
| GGGAGTTA | 0.208 E-score |
| CATAAACC | 0.0349 E-score |
| CATGCCGG | -0.0475 E-score |
| AGTTTTTG | -0.00647 E-score |
| CCGCCTCC | -0.157 E-score |
| ACCGAACT | 0.0192 E-score |
| AAGATGCT | -0.296 E-score |
| GATGATAC | 0.242 E-score |
| TAACAAAA | -0.21 E-score |
| ACTGACAG | -0.212 E-score |
